Like-named read-outs stand apart in the source and are kept apart here.

As usually defined, the koff is the rate constant with which the complex falls apart. High values mean a short-lived complex, low ones a long-lived complex. In general, kon refers to the rate constant with which the complex forms. Read a low kon as slower complex formation. By Kd is commonly meant the constant that tells how readily two partners part at equilibrium.

A short description of data set [1]: Circular dichroism (CD) spectroscopy analysis, melting temperature and refolding. Type of data set: physicochemical. As to conditions: for Melting temperatures (Tm): His6-tagged Z variants, CD variable temperature measurement; for thermo-stability and α-helical content versus Z variants having alanine in position X5: His6-tagged, valine or isoleucine in position X5 of the BM (Example 9). The procedure:
Purified His6-tagged Z variants were diluted to 0.5 mg/ml in PBS. For each diluted Z variant, a CD spectrum at 250-195 nm was obtained at 20° C. In addition, a variable temperature measurement (VTM) was performed to determine the melting temperature (Tm). In the VTM, the absorbance was measured at 221 nm while the temperature was raised from 20 to 90° C., with a temperature slope of 5° C./min. A new CD spectrum was obtained at 20° C. after the heating procedure in order to study the refolding ability of the Z variants. The CD measurements were performed on a Jasco J-810 spectropolarimeter (Jasco Scandinavia AB) using a cell with an optical path length of 1 mm.
CD was analyzed for His6-tagged Z variants, as described in Example 2.
On the technique in general: Circular dichroism is the unequal absorption of left and right circularly polarised light.

The target in data set [2] is T1, hIL-1R-I (Homo sapiens, UniProt P14778).
T1 construct: purchased R&D Systems 269-1R/CF
T1 sequence (P14778 18-569): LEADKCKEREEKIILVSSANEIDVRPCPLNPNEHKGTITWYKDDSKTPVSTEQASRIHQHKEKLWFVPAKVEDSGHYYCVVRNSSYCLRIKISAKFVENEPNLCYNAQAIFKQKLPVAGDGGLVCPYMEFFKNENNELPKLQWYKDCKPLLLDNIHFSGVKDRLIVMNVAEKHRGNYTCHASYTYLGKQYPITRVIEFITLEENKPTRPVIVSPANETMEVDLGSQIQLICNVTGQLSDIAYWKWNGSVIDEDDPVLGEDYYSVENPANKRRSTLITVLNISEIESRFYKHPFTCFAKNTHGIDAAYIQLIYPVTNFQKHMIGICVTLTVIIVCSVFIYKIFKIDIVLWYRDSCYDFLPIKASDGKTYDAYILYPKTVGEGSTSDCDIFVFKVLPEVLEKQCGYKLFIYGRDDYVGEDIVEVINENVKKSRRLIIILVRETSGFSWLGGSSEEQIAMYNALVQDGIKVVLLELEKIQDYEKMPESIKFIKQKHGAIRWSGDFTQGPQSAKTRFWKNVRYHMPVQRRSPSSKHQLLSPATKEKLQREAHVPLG
The data set can be described thus: Biacore affinity/kinetic analysis of His6-tagged Z variants, human IL-1R-I. In kind it is binding. The protocol: Affinities (KD) for human and cynomolgus IL-1R-I were determined for His6-tagged Z variants using a Biacore 2000 instrument (GE Healthcare). hIL-1R-I or cIL-1R-I-His6 was immobilized on the carboxylated dextran layer in different flow cells of a CM5 chip (GE Healthcare, cat. no. BR100012). The immobilization was performed using amine coupling chemistry according to the manufacturer's protocol. Acetate pH 4.5 (GE Healthcare, cat. no. BR100350) was used for ligand dilution and HBS-EP (GE Healthcare, cat. no. BR100188) was used as running buffer. One flow cell surface on the chip was activated and deactivated for use as blank during analyte injections. In the kinetic experiment, HBS-EP was used as running buffer, the flow rate was 50 μl/min and the temperature was 25° C. The analytes, i.e. the Z variants, were each diluted in HBS-EP buffer to final concentrations of 40 nM and 10 nM, and were injected over the target chip surfaces for 2 min, followed by dissociation in running buffer for 8 min. Kinetic constants were calculated from the obtained sensorgrams using a 1:1 binding model, in the BiaEvaluation software 4.1 (GE Healthcare).
The kinetic constants (kon and koff) and affinities (KD) for human and cynomolgus IL-1R-I were determined for His6-tagged Z variants using a Biacore 2000 instrument (GE Healthcare). The experiment was run essentially as described in Example 2, using 100, 10 and 1 nM of the Z variants. The analyte injection time was 3 min followed by 15 min dissociation and 2×5 s glycine pH 3.0 (GE Healthcare, cat. no. BR100357), supplemented with 0.5 M NaCl, was used for regeneration of the surfaces between the cycles. Kinetic constants were calculated from the obtained sensorgrams of two or three concentrations of the respective Z variant, using a 1:1 binding model in the BiaEvaluation software 4.1 (GE Healthcare). His6-tagged Z12967 was included in the assay for comparison.
The kinetic constants (kon and koff) and affinities (KD) for human and cynomolgus IL-1R-I were determined for His6-tagged Z variants using a Biacore 2000 instrument (GE Healthcare). The experiment was run essentially as described in Example 5, using 48, 12, 3 and 0.75 nM of the Z variants. The analyte injection time was 3 min followed by 6 min dissociation and 2×5 s glycine pH 3.0, supplemented with 0.5 M NaCl, was used for regeneration of the surfaces between the cycles. Kinetic constants were calculated from the obtained sensorgrams of three or four concentrations of the respective Z variant, using a 1:1 binding model in the BiaEvaluation software 4.1 (GE Healthcare). His6-tagged Z12967 (SEQ ID NO:9), Z16065 (SEQ ID NO:268), Z16163 (SEQ ID NO:359) and Z18557 (SEQ ID NO:1205) were included in the assay for comparison.

The mark [3] stands for this setting: His6-Z polypeptides binding to human IL-1R-I, Biacore, Table 19.
Where [4] appears, read: His6-Z polypeptides binding to human IL-1R-I, Biacore, Table 19, read-out: KD.
[5] abbreviates: His6-Z polypeptides, 100, 10 and 1 nM (Example 5), read-out: KD.

As to “Z19151: IL-1R-I binding Z variant (VDAKYAKEVEDIQLEIFALPNLTRRQYTAFIRKLLDDPSQSSELLSEAKKLNDSQAPK; Engineered IL-1R-I binding polypeptide)”, the “Melting temperatures (Tm)” value in data set [1] (Table 21) was 59 °C. In addition, the “thermo-stability and α-helical content versus Z variants having alanine in position X5” value in data set [1] was “not substantially different”. Further, in data set [2] (setting [3]), the koff stood at 0.007 s⁻¹ and the kon was 2.8e+07 M⁻¹ s⁻¹. Besides, the Kd in data set [2] (setting [4]) is 0.25 nM.
In the case of “Z18893 (VDAKYAKEIEEIQMEIFGLPNLTRKQYTAFIRKLLDDPSQSSELLSEAKKLNDSQAPK; His6 tag; Engineered IL-1R-I binding polypeptide)”, the “Melting temperatures (Tm)” value in data set [1] (Table 21) was determined as 60 °C. In data set [2] (setting [3]), this substance registered a koff of 0.0024 s⁻¹ and a kon of 8.6e+06 M⁻¹ s⁻¹. Besides, in data set [2] (setting [4]), the Kd was 0.27 nM.
As to “Z15932: IL-1R-I binding Z variant (VDAKYAKEVEEAQMEIFILPNLTRKQYTAFIRKLLDDPSQSSELLSEAKKLNDSQAPK; Engineered IL-1R-I binding polypeptide)”, the “Melting temperatures (Tm)” value in data set [1] (Table 21) turned out to be 60 °C. Besides, in data set [2] (setting [3]), the koff stood at 0.011 s⁻¹ and the kon amounted to 1.8e+07 M⁻¹ s⁻¹. Besides, the Kd in data set [2] (setting [4]) is 0.64 nM.
On to “Z18898: IL-1R-I binding Z variant (VDAKYAKELEAIQMEIFYLPNLTRRQYVAFIRKLLDDPSQSSELLSEAKKLNDSQAPK; Engineered IL-1R-I binding polypeptide)”, for which the “Melting temperatures (Tm)” value in data set [1] (Table 21) came to 59 °C. In data set [2] (setting [3]), this substance gave a koff of 0.0044 s⁻¹ and a kon of 6.7e+07 M⁻¹ s⁻¹. For the same substance, the Kd in data set [2] (setting [4]) is 0.066 nM.
“Z16163: IL-1R-I binding Z variant (VDAKYAKEVERAQMEIFELPNLTRRQYTAFIRKLLDDPSQSSELLSEAKKLNDSQAPK; Engineered IL-1R-I binding polypeptide)”: the “Melting temperatures (Tm)” value in data set [1] (Table 13) amounted to 57 °C. The Kd in data set [2] (setting [5]) is 0.55 nM; in data set [2] (His6-tagged, 48, 12, 3 and 0.75 nM, comparison variants (Example 9), read-out: KD to human IL-1R-I) it was 0.76 nM.
For “Z19147: IL-1R-I binding Z variant (VDAKYAKELEEIQMEIFYLPNLTRRQYTAFIRKLLDDPSQSSELLSEAKKLNDSQAPK; Engineered IL-1R-I binding polypeptide)”, the “Melting temperatures (Tm)” value in data set [1] (Table 21) worked out at 57 °C. The “thermo-stability and α-helical content versus Z variants having alanine in position X5” value in data set [1] was “not substantially different”. In data set [2] (setting [3]), this substance registered a koff of 0.0043 s⁻¹ and a kon of 2.8e+07 M⁻¹ s⁻¹. In data set [2] (setting [4]), the Kd turned out to be 0.15 nM.
As to “Z18856 (VDAKYAKELEEIQMEIFHLPNLTRRQYTAFIRKLLDDPSQSSELLSEAKKLNDSQAPK; His6 tag; Engineered IL-1R-I binding polypeptide)”, the “Melting temperatures (Tm)” value in data set [1] (Table 21) amounted to 61 °C. In data set [2] (setting [3]), this substance registered a koff of 0.0057 s⁻¹ and a kon of 4.6e+07 M⁻¹ s⁻¹. In data set [2] (setting [4]), the Kd was 0.12 nM.
As to “Z18863 (VDAKYAKEVEEVQMEIFGLPNLTRRQYTAFIRKLLDDPSQSSELLSEAKKLNDSQAPK; His6 tag; Engineered IL-1R-I binding polypeptide)”, the “Melting temperatures (Tm)” value in data set [1] (Table 21) was 57 °C. In data set [2] (setting [3]), this substance displayed a koff of 0.0048 s⁻¹ and a kon of 2.2e+07 M⁻¹ s⁻¹. Further, in data set [2] (setting [4]), the Kd was 0.22 nM.
With “Z18762 (VDAKYAKELEAIQMEIFRLPNLTRRQYTAFIRKLLDDPSQSSELLSEAKKLNDSQAPK; His6 tag; Engineered IL-1R-I binding polypeptide)”, the “Melting temperatures (Tm)” value in data set [1] (Table 21) turned out to be 62 °C. Also, in data set [2] (setting [3]), the koff amounted to 0.0052 s⁻¹ and the kon amounted to 4.2e+07 M⁻¹ s⁻¹. Also, the Kd in data set [2] (setting [4]) was 0.13 nM.
With “Z18817 (VDAKYAKEVEEIQMEIFRLPNLTRRQYTAFIRKLFDDPSQSSELLSEAKKLNDSQAPK; His6 tag; Engineered IL-1R-I binding polypeptide)”, the “Melting temperatures (Tm)” value in data set [1] (Table 21) is 60 °C. In data set [2] (setting [3]), this substance had a koff of 0.0048 s⁻¹ and a kon of 2.8e+07 M⁻¹ s⁻¹. Moreover, in data set [2] (setting [4]), the Kd is 0.17 nM.
Turning to “Z16062: IL-1R-I binding Z variant (VDAKYAKEIEEAQMEIFYLPNLTRKQYTAFIRKLFDDPSQSSELLSEAKKLNDSQAPK; Engineered IL-1R-I binding polypeptide)”, in data set [1] (Table 13), the “Melting temperatures (Tm)” value was 54 °C. Also, the Kd in data set [2] (setting [5]) was 0.44 nM.
On to “Z19143: IL-1R-I binding Z variant with valine or isoleucine in position X5 (VDAKYAKEVEEIQLEIFHLPNLTRRQYTAFIIKLLDDPSQSSELLSEAKKLNDSQAPK; His6 tag; Engineered IL-1R-I binding polypeptide)”, for which the “Melting temperatures (Tm)” value in data set [1] (Table 21) worked out at 56 °C. For the same substance, the “thermo-stability and α-helical content versus Z variants having alanine in position X5” value in data set [1] was “not substantially different”. In data set [2] (setting [3]), this substance came in with a koff of 0.0039 s⁻¹ and a kon of 1.7e+07 M⁻¹ s⁻¹. Also, the Kd in data set [2] (setting [4]) stood at 0.22 nM.
Consider “Z18823 (VDAKYAKETEEIQMEIFSLPNLTRRQYTAFIRKLLDDPSQSSELLSEAKKLNDSQAPK; His6 tag; Engineered IL-1R-I binding polypeptide)”, for which, in data set [1] (Table 21), the “Melting temperatures (Tm)” value amounted to 52 °C. Moreover, in data set [2] (setting [3]), the koff was determined as 0.0018 s⁻¹ and the kon was 4.7e+06 M⁻¹ s⁻¹. Also, in data set [2] (setting [4]), the dissociation constant (Kd) turned out to be 0.38 nM.
With “Z19170: IL-1R-I binding Z variant with valine or isoleucine in position X5 (VDAKYAKEVEEIQMEIFELPNLTRRQYTAFIRKLLDDPSQSSELLSEAKKLNDSQAPK; His6 tag; Engineered IL-1R-I binding polypeptide)”, the “Melting temperatures (Tm)” value in data set [1] (Table 21) was 52 °C. For the same substance, the “thermo-stability and α-helical content versus Z variants having alanine in position X5” value in data set [1] is reported as “not substantially different”. In data set [2] (setting [3]), this substance showed a koff of 0.0043 s⁻¹ and a kon of 2.1e+07 M⁻¹ s⁻¹. The Kd in data set [2] (setting [4]) was 0.2 nM.
For the substance “Z18850 (VDAKYAKEIEEIQMEIFALPNLTRRQYTAFIRKLLDDPSQSSELLSEAKKLNDSQAPK; His6 tag; Engineered IL-1R-I binding polypeptide)”, in data set [1] (Table 21), the “Melting temperatures (Tm)” value amounted to 62 °C. Moreover, in data set [2] (setting [3]), the koff was 0.0023 s⁻¹ and the kon turned out to be 1.3e+07 M⁻¹ s⁻¹. Also, in data set [2] (setting [4]), the Kd is 0.17 nM.
For “Z18853 (VDAKYAKEIEEIQMEIFYLPNLTRRQYTAFIRKLFDDPSQSSELLSEAKKLNDSQAPK; His6 tag; Engineered IL-1R-I binding polypeptide)”, in that order: 59 °C, 0.003 s⁻¹, 2.2e+07 M⁻¹ s⁻¹ and 0.14 nM.

For the origin of these results see patent publication US12116397B2, “IL-IR-I binding polypeptide” (Swedish Orphan Biovitrum AB (publ), priority 2017, dated 2024).
